{
  "source": "the supplement of paper PMC8728848",
  "assay_in_all_cases": "glycan array binding signal (z-score within array); higher = stronger binding",
  "details_in_all_cases": "glycan notation: IUPAC condensed, linker removed",
  "key": {"[1]": {"biological_target": "Neu5Ac(a2-3)Gal6S(b1-4)[Fuc(a1-3)]GlcNAc", "procedure,_shortened": "(§1)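 Negative Z-scores can be read as non-binding. The Z-score is calculated within each array and then averaged across arrays of one protein sequence at different concentrations or buffers and across linkers. Arrays, 3228 in all, were curated from the Consortium for Functional Glycomics database and kept only where the protein sequence was available.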"}, "Neu5Ac(a2-3)GalNAc": {"biological_target": "Neu5Ac(a2-3)GalNAc", "procedure,_shortened": "as §1"}, "[2]": {"biological_target": "Neu5Ac(a2-3)GalNAc(b1-4)GlcNAc", "procedure,_shortened": "as §1"}, "[3]": {"biological_target": "Neu5Ac(a2-3)[GalNAc(b1-4)]Gal(b1-4)Glc", "procedure,_shortened": "as §1"}, "[4]": {"biological_target": "Neu5Ac(a2-3)[GalNAc(b1-4)]Gal(b1-4)GlcNAc", "procedure,_shortened": "as §1"}, "[5]": {"biological_target": "Neu5Ac(a2-3)[Neu5Ac(a2-6)]GalNAc", "procedure,_shortened": "as §1"}, "Neu5Ac(a2-6)Gal": {"biological_target": "Neu5Ac(a2-6)Gal", "procedure,_shortened": "as §1"}, "Neu5Ac(a2-6)Gal(b1-4)Glc": {"biological_target": "Neu5Ac(a2-6)Gal(b1-4)Glc", "procedure,_shortened": "as §1"}, "[6]": {"biological_target": "Neu5Ac(a2-6)Gal(b1-4)GlcNAc", "procedure,_shortened": "as §1"}, "[7]": {"biological_target": "Neu5Ac(a2-6)Gal(b1-4)GlcNAc(b1-2)Man(a1-3)[Gal(b1-4)GlcNAc(b1-2)Man(a1-6)]Man(b1-4)GlcNAc(b1-4)GlcNAc", "procedure,_shortened": "as §1"}, "[8]": {"biological_target": "Neu5Ac(a2-6)Gal(b1-4)GlcNAc(b1-2)Man(a1-3)[GlcNAc(b1-2)Man(a1-6)]Man(b1-4)GlcNAc(b1-4)GlcNAc", "procedure,_shortened": "as §1"}, "[9]": {"biological_target": "Neu5Ac(a2-6)Gal(b1-4)GlcNAc(b1-2)Man(a1-3)[GlcNAc(b1-2)Man(b1-4)GlcNAc(b1-2)Man(a1-6)]Man(b1-4)GlcNAc(b1-4)GlcNAc", "procedure,_shortened": "as §1"}, "[10]": {"biological_target": "Neu5Ac(a2-6)Gal(b1-4)GlcNAc(b1-2)Man(a1-3)[Neu5Ac(a2-6)Gal(b1-4)GlcNAc(b1-2)Man(a1-6)]Man(b1-4)GlcNAc(b1-4)GlcNAc", "procedure,_shortened": "as §1"}, "[11]": {"biological_target": "Neu5Ac(a2-6)Gal(b1-4)GlcNAc(b1-2)Man(a1-6)[Gal(b1-4)GlcNAc(b1-2)Man(a1-3)]Man(b1-4)GlcNAc(b1-4)GlcNAc", "procedure,_shortened": "as §1"}, "[12]": {"biological_target": "Neu5Ac(a2-6)Gal(b1-4)GlcNAc(b1-2)Man(a1-6)[GlcNAc(b1-2)Man(a1-3)]Man(b1-4)GlcNAc(b1-4)GlcNAc", "procedure,_shortened": "as §1"}, "[13]": {"biological_target": "Neu5Ac(a2-6)Gal(b1-4)GlcNAc(b1-3)Gal(b1-4)GlcNAc", "procedure,_shortened": "as §1"}, "[14]": {"biological_target": "Neu5Ac(a2-6)Gal(b1-4)GlcNAc(b1-3)Gal(b1-4)[Fuc(a1-3)]GlcNAc(b1-3)Gal(b1-4)[Fuc(a1-3)]GlcNAc", "procedure,_shortened": "as §1"}, "[15]": {"biological_target": "Neu5Ac(a2-6)Gal(b1-4)GlcNAc6S", "procedure,_shortened": "as §1"}, "Neu5Ac(a2-6)GalNAc": {"biological_target": "Neu5Ac(a2-6)GalNAc", "procedure,_shortened": "as §1"}, "[16]": {"biological_target": "Neu5Ac(a2-6)GalNAc(b1-4)GlcNAc", "procedure,_shortened": "as §1"}, "Neu5Ac(a2-8)Neu5Ac": {"biological_target": "Neu5Ac(a2-8)Neu5Ac", "procedure,_shortened": "as §1"}, "[17]": {"biological_target": "Neu5Ac(a2-8)Neu5Ac(a2-3)Gal(b1-4)Glc", "procedure,_shortened": "as §1"}, "[18]": {"biological_target": "Neu5Ac(a2-8)Neu5Ac(a2-3)[GalNAc(b1-4)]Gal(b1-4)Glc", "procedure,_shortened": "as §1"}, "[19]": {"biological_target": "Neu5Ac(a2-8)Neu5Ac(a2-8)Neu5Ac", "procedure,_shortened": "as §1"}, "[20]": {"biological_target": "Neu5Ac(a2-8)Neu5Ac(a2-8)Neu5Ac(a2-3)Gal(b1-4)Glc", "procedure,_shortened": "as §1"}, "[21]": {"biological_target": "Neu5Ac(a2-8)Neu5Ac(a2-8)Neu5Ac(a2-3)[GalNAc(b1-4)]Gal(b1-4)Glc", "procedure,_shortened": "as §1"}, "[22]": {"biological_target": "Neu5Ac(a2-8)Neu5Ac(a2-8)Neu5Ac(a2-8)Neu5Ac(a2-3)[GalNAc(b1-4)]Gal(b1-4)Glc", "procedure,_shortened": "as §1"}, "[23]": {"biological_target": "Neu5Ac(b2-6)Gal(b1-4)GlcNAc", "procedure,_shortened": "as §1"}, "Neu5Ac(b2-6)GalNAc": {"biological_target": "Neu5Ac(b2-6)GalNAc", "procedure,_shortened": "as §1"}, "[24]": {"biological_target": "Neu5Ac9Ac(a2-6)Gal(b1-4)GlcNAc", "procedure,_shortened": "as §1"}, "[25]": {"biological_target": "Neu5Gc(a2-3)Gal(b1-3)GlcNAc", "procedure,_shortened": "as §1"}, "[26]": {"biological_target": "Neu5Gc(a2-3)Gal(b1-3)[Fuc(a1-4)]GlcNAc", "procedure,_shortened": "as §1"}, "Neu5Gc(a2-3)Gal(b1-4)Glc": {"biological_target": "Neu5Gc(a2-3)Gal(b1-4)Glc", "procedure,_shortened": "as §1"}, "[27]": {"biological_target": "Neu5Gc(a2-3)Gal(b1-4)GlcNAc", "procedure,_shortened": "as §1"}, "[28]": {"biological_target": "Neu5Gc(a2-3)Gal(b1-4)[Fuc(a1-3)]GlcNAc", "procedure,_shortened": "as §1"}, "[29]": {"biological_target": "Neu5Gc(a2-6)Gal(b1-4)GlcNAc", "procedure,_shortened": "as §1"}, "Neu5Gc(a2-6)GalNAc": {"biological_target": "Neu5Gc(a2-6)GalNAc", "procedure,_shortened": "as §1"}, "[30]": {"biological_target": "Neu5Gc(b2-6)Gal(b1-4)GlcNAc", "procedure,_shortened": "as §1"}},
  "note": "This is one part of the list.",
  "data": [
    {"binder": "SLR2P2A3 (Tachypleus tridentatus), TAL2_TACTR (protein) MEKGTPPTHDSDNWMGRAKKIGNGGWNQFQFLFFDPNGYLYAVSKDKLYKASPPQSDTDNWIARATEIGSGGWSGSKFLFFHPNGYLYAVHGQRLYKALPPVSNQD", "values": [
      {"measurement": "glycan array binding signal (z-score)", "setting": "[1]", "value": -0.561},
      {"measurement": "glycan array binding signal (z-score)", "setting": "Neu5Ac(a2-3)GalNAc", "value": -0.397},
      {"measurement": "glycan array binding signal (z-score)", "setting": "[2]", "value": -0.293},
      {"measurement": "glycan array binding signal (z-score)", "setting": "[3]", "value": -0.322},
      {"measurement": "glycan array binding signal (z-score)", "setting": "[4]", "value": -0.428},
      {"measurement": "glycan array binding signal (z-score)", "setting": "[5]", "value": -0.201},
      {"measurement": "glycan array binding signal (z-score)", "setting": "Neu5Ac(a2-6)Gal", "value": 0.457},
      {"measurement": "glycan array binding signal (z-score)", "setting": "Neu5Ac(a2-6)Gal(b1-4)Glc", "value": -0.383},
      {"measurement": "glycan array binding signal (z-score)", "setting": "[6]", "value": 0.1},
      {"measurement": "glycan array binding signal (z-score)", "setting": "[7]", "value": -0.472},
      {"measurement": "glycan array binding signal (z-score)", "setting": "[8]", "value": -0.504},
      {"measurement": "glycan array binding signal (z-score)", "setting": "[9]", "value": -0.234},
      {"measurement": "glycan array binding signal (z-score)", "setting": "[10]", "value": -0.151},
      {"measurement": "glycan array binding signal (z-score)", "setting": "[11]", "value": -0.308},
      {"measurement": "glycan array binding signal (z-score)", "setting": "[12]", "value": -0.496},
      {"measurement": "glycan array binding signal (z-score)", "setting": "[13]", "value": -0.076},
      {"measurement": "glycan array binding signal (z-score)", "setting": "[14]", "value": -0.495},
      {"measurement": "glycan array binding signal (z-score)", "setting": "[15]", "value": -0.494},
      {"measurement": "glycan array binding signal (z-score)", "setting": "Neu5Ac(a2-6)GalNAc", "value": -0.16},
      {"measurement": "glycan array binding signal (z-score)", "setting": "[16]", "value": -0.303},
      {"measurement": "glycan array binding signal (z-score)", "setting": "Neu5Ac(a2-8)Neu5Ac", "value": -0.527},
      {"measurement": "glycan array binding signal (z-score)", "setting": "[17]", "value": -0.296},
      {"measurement": "glycan array binding signal (z-score)", "setting": "[18]", "value": -0.279},
      {"measurement": "glycan array binding signal (z-score)", "setting": "[19]", "value": -0.163},
      {"measurement": "glycan array binding signal (z-score)", "setting": "[20]", "value": -0.509},
      {"measurement": "glycan array binding signal (z-score)", "setting": "[21]", "value": -0.261},
      {"measurement": "glycan array binding signal (z-score)", "setting": "[22]", "value": -0.513},
      {"measurement": "glycan array binding signal (z-score)", "setting": "[23]", "value": -0.452},
      {"measurement": "glycan array binding signal (z-score)", "setting": "Neu5Ac(b2-6)GalNAc", "value": -0.308},
      {"measurement": "glycan array binding signal (z-score)", "setting": "[24]", "value": -0.421},
      {"measurement": "glycan array binding signal (z-score)", "setting": "[25]", "value": -0.355},
      {"measurement": "glycan array binding signal (z-score)", "setting": "[26]", "value": -0.071},
      {"measurement": "glycan array binding signal (z-score)", "setting": "Neu5Gc(a2-3)Gal(b1-4)Glc", "value": -0.253},
      {"measurement": "glycan array binding signal (z-score)", "setting": "[27]", "value": -0.059},
      {"measurement": "glycan array binding signal (z-score)", "setting": "[28]", "value": -0.349},
      {"measurement": "glycan array binding signal (z-score)", "setting": "[29]", "value": 0.284},
      {"measurement": "glycan array binding signal (z-score)", "setting": "Neu5Gc(a2-6)GalNAc", "value": -0.125},
      {"measurement": "glycan array binding signal (z-score)", "setting": "[30]", "value": -0.08}
    ]}
  ]
}
